Experimental findings from PubChem BioAssay (NCI) are described below.

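Results reflect a 48-hour exposure of cells in 96-well plates to compound at five concentrations. The concentration for 50% growth inhibition is given as GI50. TGI is the concentration that stops growth completely.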

The assay deals with NCI-H322M lung. Nature of the assay: NCI-60 cell line screen, 48 h.
On to `COc1ccc(CCC2c3c(cc4c(c3OC)OCO4)CCN2C)cc1` (stereo not drawn), for which the GI50 is 6.85 µM and the TGI came to 70.5 µM.

Regarding `COc1cc2c3c(n(CCCn4ccnc4)c(=O)c2cc1OC)-c1nc2c(cc1C3=O)OCO2`, the GI50 was greater than 35 µM and the TGI was greater than 100 µM.

On to `CC1(C)CC[C@]2(C(=O)N3CCOCC3)CC[C@]3(C)C(=CC[C@@H]4[C@@]5(C)CC[C@H](NCO)C(C)(C)[C@@H]5CC[C@]43C)[C@H]2C1`, for which the GI50 is 4.03 µM and the TGI was found to be 8.42 µM.

Turning to `COc1cccc2nc(Nc3cccc(NC(=O)c4ccc(CN5CCN(C)CC5)c(C(F)(F)F)c4)c3)ccc12`, the GI50 was 2.3 µM and the TGI worked out at 6.32 µM.
